Source: the antibiotic and cytotoxicity screens of Wong et al. (2023)
Some of the results follow.

system: HSkMC (human skeletal muscle cells); assay: cytotoxicity call (relative viability < 0.9); details: 10 µM

Q: Which cytotoxicity call does the source give for `Cc1ccc(S(=O)(=O)Nc2ccc3c(c2)C(=O)N([C@@H](C)CO)C[C@H](C)[C@@H](CN(C)S(=O)(=O)c2ccc(F)cc2)O3)cc1` here?
A: Its cytotoxicity call is “inactive”.

Q: Which cytotoxicity call does the source give for `N#CCC12CC3CC(CC(C3)C1)C2` here?
A: The cytotoxicity call was “inactive”.

Q: How did the cytotoxicity call turn out when `C[C@@H]1CCCCO[C@@H](CN(C)Cc2ccc(C(=O)O)cc2)[C@H](C)CN([C@@H](C)CO)C(=O)c2cc(NC(=O)c3ccccc3)ccc2O1` was run?
A: Its cytotoxicity call is “inactive”.

Q: How did the cytotoxicity call turn out when `CCc1nc2ccc(C(=O)Nc3cccc(OC)c3)cn2c1N(CC)Cc1cccc(Br)c1` was run?
A: The cytotoxicity call was “inactive”.

Q: How did the cytotoxicity call turn out when `Clc1ccc2ncccc2c1` was run?
A: The cytotoxicity call was “inactive”.

Q: How did the cytotoxicity call turn out when `CO/N=C(\C(=O)N[C@@H]1C(=O)N2C(C(=O)O)=C(CSC(=O)c3ccco3)CS[C@H]12)c1csc(N)n1` was run?
A: The cytotoxicity call was “inactive”.

Q: Which cytotoxicity call does the source give for `C[C@@H]1CN([C@H](C)CO)C(=O)c2cc(NS(=O)(=O)c3ccc(Cl)cc3)ccc2O[C@@H](C)CCCCO[C@@H]1CN(C)C(=O)Cc1ccccc1` here?
A: The cytotoxicity call was “inactive”.

Q: How did the cytotoxicity call turn out when `C[C@@H]1CN([C@H](C)CO)C(=O)c2cc(-c3cncnc3)cnc2O[C@H]1CN(C)C(=O)CN1CCOCC1` was run?
A: The cytotoxicity call was “inactive”.

Q: `O=C1O[C@@H](c2ccccc2)[C@@H](c2ccccc2)N2[C@@H](c3ccc(OCCO)cc3)[C@]3(C(=O)Nc4ccccc43)[C@@H](C(=O)N3CCCCCCC3)[C@H]12` was tested. Which cytotoxicity call did it give?
A: The cytotoxicity call was “inactive”.

system: HepG2; assay: cytotoxicity call (relative viability < 0.9); details: 10 µM

Q: With `C[C@@H]1CN([C@@H](C)CO)C(=O)c2cc(/C=C/c3ccccc3)cnc2O[C@@H]1CN(C)C(=O)C1CCOCC1` as the compound, how does the cytotoxicity call read?
A: The cytotoxicity call was “inactive”.

Q: How did the cytotoxicity call turn out when `C[C@@H]1CN([C@@H](C)CO)C(=O)c2cc(NS(=O)(=O)c3ccc(Cl)cc3)ccc2O[C@@H](C)CCCCO[C@@H]1CN(C)C(=O)Nc1cccc2ccccc12` was run?
A: Its cytotoxicity call is “inactive”.

Q: How did the cytotoxicity call turn out when `C[C@H]1CCCCO[C@H](CN(C)Cc2ccc(C(=O)O)cc2)[C@@H](C)CN([C@@H](C)CO)C(=O)c2cc(NC(=O)Nc3ccc(C(F)(F)F)cc3)ccc2O1` was run?
A: The cytotoxicity call was “inactive”.

Q: How did the cytotoxicity call turn out when `Cc1noc(C)c1S(=O)(=O)Nc1ccc2c(c1)C(=O)N([C@@H](C)CO)C[C@H](C)[C@H](CN(C)Cc1ccc(C(F)(F)F)cc1)OCCCC[C@@H](C)O2` was run?
A: The cytotoxicity call was “active”.

Q: `NC(Cc1c[nH]c2ccccc12)C(=O)O` (configuration not stated) was tested. Which cytotoxicity call did it give?
A: The cytotoxicity call was “inactive”.

Q: `C[C@@H]1CCCCO[C@H](CN(C)C(=O)c2ccncc2)[C@@H](C)CN([C@H](C)CO)C(=O)c2cc(NC(=O)C3CCCCC3)ccc2O1` was tested. Which cytotoxicity call did it give?
A: The cytotoxicity call was “inactive”.

Q: Which cytotoxicity call does the source give for `Cc1ccccc1NCC(=O)NN` here?
A: The cytotoxicity call was “inactive”.

Q: `N=C(N)SC=CC(=O)O` was tested. Which cytotoxicity call did it give?
A: Its cytotoxicity call is “inactive”.

Q: How did the cytotoxicity call turn out when `CC(=O)O.Cc1c(-c2ccc(O)cc2)n(Cc2ccc(OCCN3CCCCCC3)cc2)c2ccc(O)cc12` was run?
A: Its cytotoxicity call is “active”.

Q: How did the cytotoxicity call turn out when `C[C@@H]1CN([C@H](C)CO)C(=O)Cc2cc(NC(=O)Nc3cccc4ccccc34)ccc2O[C@@H]1CN(C)Cc1ccc(C(F)(F)F)cc1` was run?
A: Its cytotoxicity call is “active”.

Q: How did the cytotoxicity call turn out when `C[C@@H]1CN([C@H](C)CO)C(=O)c2cc(NC(=O)CCN3CCOCC3)ccc2O[C@@H]1CN(C)S(=O)(=O)c1cn(C)cn1` was run?
A: The cytotoxicity call was “inactive”.

Q: For `Cc1noc(C)c1NC(=O)N(C)C[C@H]1Oc2ccc(NS(C)(=O)=O)cc2C(=O)N([C@H](C)CO)C[C@@H]1C`, which cytotoxicity call is on record?
A: The cytotoxicity call was “inactive”.

Q: With `CC(C)NC(=O)Nc1ccc2c(c1)C(=O)N([C@H](C)CO)C[C@H](C)[C@H](CN(C)Cc1ccc(Cl)c(Cl)c1)OCCCC[C@@H](C)O2` as the compound, how does the cytotoxicity call read?
A: The cytotoxicity call was “inactive”.

Q: How did the cytotoxicity call turn out when `COc1cccc(C#Cc2ccc3c(c2)O[C@H](CN(C)C(=O)CN2CCOCC2)[C@H](C)CN([C@@H](C)CO)S3(=O)=O)c1` was run?
A: The cytotoxicity call was “inactive”.

Q: For `CN1C(=O)c2cc(NC(=O)Cc3cccs3)ccc2OC[C@H]2O[C@@H](CC(=O)NCCc3ccncc3)CC[C@@H]21`, which cytotoxicity call is on record?
A: The cytotoxicity call was “inactive”.

Q: Which cytotoxicity call does the source give for `C[C@@H]1CCCCO[C@@H](CN(C)S(=O)(=O)c2cccs2)[C@@H](C)CN([C@H](C)CO)C(=O)c2cc(NC(=O)Nc3ccc(F)cc3)ccc2O1` here?
A: Its cytotoxicity call is “inactive”.

Q: Which cytotoxicity call does the source give for `COCCC(=O)N1CCN(c2ccccn2)CC1` here?
A: The cytotoxicity call was “inactive”.

Q: With `Cc1noc(C)c1S(=O)(=O)Nc1ccc2c(c1)C(=O)N([C@H](C)CO)C[C@@H](C)[C@@H](CN(C)C)OCCCC[C@H](C)O2` as the compound, how does the cytotoxicity call read?
A: Its cytotoxicity call is “inactive”.

Q: For `COc1ccc(CN(C)C[C@@H]2Oc3ccc(NC(=O)CCN4CCOCC4)cc3CC(=O)N([C@@H](C)CO)C[C@@H]2C)cc1`, which cytotoxicity call is on record?
A: The cytotoxicity call was “inactive”.

Q: For `C[C@@H]1CCCCO[C@@H](CN(C)C(=O)Nc2ccccc2)[C@@H](C)CN([C@H](C)CO)C(=O)c2cc(NS(=O)(=O)c3ccccc3)ccc2O1`, which cytotoxicity call is on record?
A: The cytotoxicity call was “inactive”.

Q: How did the cytotoxicity call turn out when `C[C@@H]1CN([C@H](C)CO)C(=O)c2cc(NC(=O)c3ccncc3)ccc2O[C@@H](C)CCCCO[C@H]1CN(C)Cc1ccccc1` was run?
A: The cytotoxicity call was “inactive”.

Q: For `O=C(O)C(S)C(S)C(=O)O` (configuration not stated), which cytotoxicity call is on record?
A: Its cytotoxicity call is “inactive”.

Q: With `C[C@@H]1CN([C@H](C)CO)C(=O)c2c(c3ccccc3n2C)-c2ccccc2CO[C@H]1CN(C)Cc1cccc(C(F)(F)F)c1` as the compound, how does the cytotoxicity call read?
A: Its cytotoxicity call is “inactive”.
